Data from the RNAGym collection of RNA variant scans (doi:10.1101/gad.245936.114).
This sample is rich in variants without activity.

B1: tRNA (parent)
chain: CUCUCGGUAGCCAAGUUGGUUUAAGGCGCAAGACUUUAAUUUAUCACUACGAAAUCUUGAGAUCGGGCGUUCGACUCGCCCCCGGGAGAUUUUUUCCUCGAGCAA

Variants of: B1
Experiment: nonsense suppression (GFP-seq) (ratio to wild type); higher = more function; SUP4oc tRNA, yeast GFP reporter sort-seq
In short: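 Yeast carrying genome-integrated SUP4oc tRNA variants from a library with ~3% random mutations were grown in raffinose/galactose medium with 80 mg/L adenine. Each strain also carried a galactose-driven GFP ochre reporter and RFP. Cells were sorted into GFP/RFP bins, and each bin was Illumina-sequenced (phred ≥30). Nonsense suppression (GFPSEQ) is the bin median GFP/RFP, weighted by each variant's estimated cell share per bin, relative to wild-type SUP4oc; variants needed ≥100 reads and ≥30 cells.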

Nonsense suppression, ≤ 0.026:
CGCUCGGUAGCCAAGUUGGUUUAAGGCGCAAGAGUUUAAUUUAUCACUACGAAAUCUUGAGAUCGGGCGUUCGACUCGCCCCCGGGAGAUUUUUUCCUCGAGCAA [U2G C34G]
CGCUCGGUAGCCAAGUUGGUUUAAGGCGCAAGAUUUUAAUUUAUCACUACGAAAUCUUGAGAUCGGGCGUUCGACUCGCCCCCGGGAGAUUUUUUCCUCGAGCAA [U2G C34U]
CGCUCGGUAGCCAAGUUGGUUUAAGGCGCAAGACUUUAAUUUAUCACUACGAAAUCUUGAGAUCGGGCGUUAGACUCGCCCCCGGGAGAUUUUUUCCUCGAGCAA [U2G C72A]
CGCUCGGUAGCCAAGUUGGUUUAAGGCGCAAGACUUUAAUUUAUCACUACGAAAUCUUGAGAUCGGGCGUUCGAAUCGGCCCCGGGAGAUUUUUUCCUCGAGCAA [U2G C75A C79G]
CGCUCGGUAGCCAAGUUGGUUUAAGGCGCAAGACUUUAAUUUAUCACUACGAAAUCUUGAGAUCGGGCGUUCGAGUCGCCCCCGGGAGAUUUUUUCCUCGAGCAA [U2G C75G]
CGCUCGGUAGCCAAGUUGGUUUAAGGCGCAAGACUUUAAUUUAUCACUACGAAAUCUUGAGAUCGGGCGUUCGACUCGACCCCGGGAGAUUUUUUCCUCGAGCAA [U2G C79A]
CGCUCGGUAGCCAAGUUGGUUUAAGGCGCAAGACUUUAAUUUAUCACUACGAAAUCUUGAGAUCGGGCGUUCGACUCGCCCUCGGGAGAUUUUUUCCUCGAGCAA [U2G C82U]
CGCUCAGUAGCCAAGUUUGUUUAAGGCGGAAGACUUUAAUUUAUCACUACGAAAUCUUGAAAUCAGGCGUUCGACUCGCCCCCGUGAGAUUUUUUCCUCGAGCAA [U2G G6A G18U C29G G61A G65A G85U]
CGCUCAGUAGCCAAGUUUAUUUAAGGGGCAUGACUUUAAUUUAUCACUACGAAAUCUGGAGAUCGGGCGUUCGACUCGCCCCCUGGUGAUUUUUUCCUCGAGCAA [U2G G6A G18U G19A C27G A31U U58G G84U A87U]
CGCUCCGUAGCCAAGUUGGUUUAAGGCGCAAGACUUUAAUUUAUCACUACGAAAUCUUGAGAUCGGGCGUUCGACUCGCCCCCGGGAGCUUUUUUCCUCGAGCAA [U2G G6C A89C]
CGCUCGAUAGCCAAGUUGGUUUAAGGCGCAAGACUUUAAUUUAUCACUACGAAAUCUUGAGAUCGGGCGUUCGACUCGCCCCCGGGAGAUUUUUUCCUCGAGCAA [U2G G7A]
CGCUCGCUAGCCAAGUUGGUUUAAGGCGCAAGACUUUAAUUUAUCACUACGAAAUCUUGACAUCGGGCGUUCGACUCGCCCCCGGGAGAUUUUUUCCUCGAGCAA [U2G G7C G61C]
CGCUCGUUAGCCAAGUUGGUUUAAGGCGCAAGACUUUAAUUUAUCACUACGAAAUCUUGAGAUCGGGCGUUCGACUCGCCCCCGGGAGAUUUUUUCCUCGAGCAA [U2G G7U]
CGCUCGUUAGCCAAGUUGGUUUAAGGCGCAGGACUUUAAUUUAUCACUACGAAAUCUUGAGAUCGGGCGUUCGUCUCGCCCCCGGGAGAUUUUUUCCUCGAGCAA [U2G G7U A31G A74U]
CGCUCGGUACCCAAGUUGGUUUAAGACGCAAGACUUUAAUUUAUCACUACGAAAUCUUGAGAUCGGGCUUUCGACUCGCCCCCGGGAGAUUUUUUCCUCGAGCAA [U2G G10C G26A G69U]
CGCUCGGUACCCAAGUUGGAUUAGGGCGCAAGACGUUAAUUUAUCACUACGAAAUCUUGAGAUCGGGCGUUCGACUCGCCCCCGGGAGAUUUUUUCCUCGAGCAA [U2G G10C U20A A24G U35G]
CGCUCGGUACCCAAGUUGGAUUAGGGCGCAAGACGUUAAUUUAUCACUACGAAAUCUUGAGAUCGGGCGUUCGCCUCGCCCCCGGGAGAUUUUUUCCUCGAGCAA [U2G G10C U20A A24G U35G A74C]
CGCUCGGUACCCAAGUUGGUCUAAGGCGCAAGACUUUAAUUUAUCACUACGAAAUCUUGAGAUCGGGCGUACGACUCGCCCCCGGGAGAUUUUUUCCUCGAGCAA [U2G G10C U21C U71A]
CGCUCGGUAUCCAAGUUGGUUUAAGGCGCAAGAGUUUAAUUUAUCACUACGAAAUCUUGAGAUCGGGCGUUCGACUCGCCCCCGGGAGAUUUUUUCCUCGAGCAA [U2G G10U C34G]
CGCUCGGUAUCCAAGUUGGUUUAAGGCGCAAGACUUUAAUUUAUCACUACGAAAUCUUGAGAUCGGGCGUUCGACUCGCCGCCGGGAGAUUUUUUCCUCGAGCAA [U2G G10U C81G]
CGCUCGGUAUCCAAGUUGGUUUAAGCCGCAAGACUUUAAUUUAUCACUACGAAAUCUUGGGAUCGGGCGUUCGACUCGCCCCCGGGAGAUUUUUUCCUCGAGCAA [U2G G10U G26C A60G]
CGCUCGGUAGCCAAAUUGGUAUAAAGCGCAAGACUUUAAUUUAUCACUACGAAAUCUUGAGAUCGGGCCGUCGACUCGCCCCCGGGAGAUUUUUUCCUCGAGCAA [U2G G15A U21A G25A G69C U70G]
CGCUCGGUAGCCAAUUUGGUUUAAGGCGCAAGACUUUAAUUUAUCACUACGAAAUCUUGAGAUCGGGCGUUCAACUCGCCCCCGGGAGAUUUUUUCCUCGAGCAA [U2G G15U G73A]
CGCUCGGUAGCCAAGUUAGUUUACGGCGCAAGACUUUAAUUUAUCACUACGAAAUCUUGAGAUCGGGCGUUCGAGUCGCCCCCGGGAGAUUUUUUCCUCGAGCAA [U2G G18A A24C C75G]
CGCUCGGUAGCCAAGUUAGUUUAAGGCGCAAGACUUUAAUUUAUCACUACGAAAUCUUUAGGUCGGGCGUUCGACUGGCCCCCGGGAGAUUUUUUCCUCGAGCAA [U2G G18A G59U A62G C77G]
CGCUCGGUAGCCAAGUUGAUUUAAGGCGCAAGACUUUAAUUUAUCACUACGAAAUCUUGAGAUCGGGCGUUCGACUCGCCCCCGGGAGAUUUUUUCCUCGAGCAA [U2G G19A]
CGCUCGGUAGCCAAGUUGCUUUAAGGCGCAAGACUUUAAUUUAUCACUACGAAAUCUUGAGAUCGGGCGUUGGACUCGCCCCCGGGAGAUUUUUUCCUCGAGCAA [U2G G19C C72G]
